This note sets out measurements from the supplement of paper PMC4967469.

IC50 is the fitted dose that halves viability relative to control wells, and lower means more sensitive; fits outside the tested doses are given as limits. AUC, from the same fit, is the share of area under the viability curve across the 256-fold dose range: 1 means no effect, lower means more sensitive. For part of these data: A top dose marked as inferred was derived from the fitted curves, not read from the paper. For part of these data: Drugs with an entry number were screened twice under separate entries, and the two screens often disagree.

Experiment in all cases: Viability of human cancer cell lines after 72 h of drug (GDSC screen)
Compound in one assay: COCC[n+]1c2c(n(Cc3cnccn3)c1C)C(=O)c1ccccc1C2=O [YM155]
Particulars: top dose 5.12 µM. The protocol:
(§1)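 Human cancer cell lines in 384-well plates, medium with 10% serum, drug for 72 h over a 256-fold dose range (nine 2-fold or five 4-fold steps up to the top dose). Adherent lines were fixed and stained with the nucleic acid dye Syto60, suspension lines read with resazurin; signal relative to control wells, capped at 0 and 100%. One two-parameter sigmoid per drug and line, fitted in a mixed model over all curves with the slope shared within a line.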

Compound in a further assay: COC(=O)[C@H](CCSC)NC(=O)c1ccc(NC[C@@H](N)CS)cc1-c1ccccc1 [FTI-277]
Particulars: top dose 1.024 µM; top dose inferred. The protocol:
as §1

Compound in a further assay: Cc1ccc(C(=O)N(CCCN)[C@@H](c2nc3cc(Cl)ccc3c(=O)n2Cc2ccccc2)C(C)C)cc1 [SB-715992]
To be noted: top dose 0.128 µM; top dose inferred. The protocol:
as §1

Compound in the next assay: CCOc1nc(NC(=O)Cc2cc(OC)ccc2OC)cc(N)c1C#N [JNK Inhibitor VIII]
To be noted: top dose 10 µM; top dose inferred. The protocol: as §1

Compound in a further assay: O=C(/C=C/c1cccc(S(=O)(=O)Nc2ccccc2)c1)NO [Belinostat]
To be noted: top dose 20 µM; top dose inferred. The protocol:
as §1

Compound in a further assay: CC(=O)O[C@@]12CO[C@@H]1C[C@H](O)[C@@]1(C)C(=O)[C@H](O)C3=C(C)[C@@H](OC(=O)[C@H](O)[C@@H](NC(=O)OC(C)(C)C)c4ccccc4)C[C@@](O)([C@@H](OC(=O)c4ccccc4)[C@H]21)C3(C)C [Docetaxel]
Particulars: top dose 0.0125 µM. The protocol:
as §1

Compound in another assay: C[C@]1(O)C[C@@H](c2nc(-c3ccc4ccc(-c5ccccc5)nc4c3)c3c(N)nccn32)C1 [OSI-906]
Particulars: top dose 2.56 µM; top dose inferred. The protocol:
as §1

Compound in the next assay: CC1(C)CNc2cc(NC(=O)c3cccnc3NCc3ccncc3)ccc21 [AMG-706]
Particulars: top dose 2 µM; top dose inferred. The protocol:
as §1

Compound in the next assay: CN1CCN(c2ccc([N+](=O)[O-])c3no[n+]([O-])c23)CC1 [NSC-207895]
Particulars: top dose 20 µM; top dose inferred. The protocol: as §1

Compound in the next assay: c1ccc2c(CCNc3ccc(Nc4ccncc4)cc3)c[nH]c2c1 [JNJ-26854165]
Particulars: top dose 10 µM. The protocol:
as §1

Compound in another assay: Cc1sc2c(c1C)C(c1ccc(Cl)cc1)=N[C@@H](CC(=O)OC(C)(C)C)c1nnc(C)n1-2 [JQ1]
The protocol: as §1

The mark [1] stands for this setting: top dose 1 µM, screen: GDSC drug entry 1218, top dose inferred.
[2] abbreviates: top dose 2.56 µM, screen: GDSC drug entry 163.

Consider “NCI-H2291 (lung adenocarcinoma, adherent)”, for which the AUC with YM155 was found to be 0.838; with FTI-277 it was 0.983; in the assay with SB-715992, 0.983; with JNK Inhibitor VIII it was 0.979; in the assay with Belinostat, 0.974; in the assay with Docetaxel, 0.899. Moreover, the AUC worked out at 0.984 with OSI-906; 0.979 with AMG-706; 0.982 with NSC-207895; 0.88 with JNJ-26854165; 0.951 in the assay with JQ1 (setting [1]); 0.968 with JQ1 (setting [2]). Besides, the IC50 with YM155 was more than 5.12 µM; with FTI-277, more than 1.02 µM; in the assay with SB-715992, more than 0.128 µM; with JNK Inhibitor VIII, more than 10 µM; in the assay with Belinostat it was more than 20 µM; with Docetaxel, more than 0.0125 µM. Besides, the 50% inhibitory concentration (IC50) in the assay with OSI-906 is more than 2.56 µM; with AMG-706, more than 2 µM; with NSC-207895, more than 20 µM; with JNJ-26854165, more than 10 µM; in the assay with JQ1 (setting [1]), more than 1 µM; with JQ1 (setting [2]) it was more than 2.56 µM.

In the case of “NCI-H2342 (lung adenocarcinoma, adherent)”, the AUC is 0.056 with YM155; 0.972 with FTI-277; 0.982 with SB-715992; 0.981 in the assay with JNK Inhibitor VIII; 0.862 in the assay with Belinostat; 0.928 with Docetaxel. The AUC is 0.954 with OSI-906; 0.983 with AMG-706; 0.885 with NSC-207895; 0.804 with JNJ-26854165; 0.983 with JQ1 (setting [1]); 0.615 with JQ1 (setting [2]). Besides, the IC50 in the assay with YM155 was less than 0.02 µM; in the assay with FTI-277, more than 1.02 µM; in the assay with SB-715992 it was more than 0.128 µM; in the assay with JNK Inhibitor VIII, more than 10 µM; with Belinostat, more than 20 µM; with Docetaxel it was more than 0.0125 µM. Moreover, the IC50 with OSI-906 is more than 2.56 µM; with AMG-706 it was more than 2 µM; in the assay with NSC-207895, more than 20 µM; with JNJ-26854165 it was 5.61 µM; with JQ1 (setting [1]), more than 1 µM; with JQ1 (setting [2]) it was 0.343 µM.

As to “NCI-H2347 (lung adenocarcinoma, adherent)”, the AUC with YM155 came out at 0.038; with FTI-277 it was 0.975; with SB-715992, 0.967; with JNK Inhibitor VIII, 0.982; in the assay with Belinostat it was 0.505; with Docetaxel it was 0.856. For the same cell line, the AUC is 0.93 with OSI-906; 0.981 with AMG-706; 0.95 with NSC-207895; 0.837 with JNJ-26854165; 0.981 with JQ1 (setting [1]); 0.743 in the assay with JQ1 (setting [2]). Also, the IC50 with YM155 was less than 0.02 µM; with FTI-277, more than 1.02 µM; in the assay with SB-715992, more than 0.128 µM; in the assay with JNK Inhibitor VIII it was more than 10 µM; with Belinostat it was 1.29 µM; with Docetaxel it was more than 0.0125 µM. For the same cell line, the concentration for half-maximal inhibition (IC50) in the assay with OSI-906 is more than 2.56 µM; with AMG-706, more than 2 µM; in the assay with NSC-207895, more than 20 µM; with JNJ-26854165 it was 8.85 µM; in the assay with JQ1 (setting [1]) it was more than 1 µM; with JQ1 (setting [2]), 0.944 µM.

Regarding “NCI-H2405 (lung adenocarcinoma, adherent)”, the AUC in the assay with YM155 was 0.204; with FTI-277, 0.986; with SB-715992 it was 0.921; in the assay with JNK Inhibitor VIII, 0.986; with Belinostat it was 0.667; with Docetaxel, 0.944. Further, the AUC with OSI-906 worked out at 0.912; with AMG-706, 0.984; with NSC-207895 it was 0.986; with JNJ-26854165, 0.953; in the assay with JQ1 (setting [1]) it was 0.984; with JQ1 (setting [2]) it was 0.877. Moreover, the IC50 in the assay with YM155 was 0.0382 µM; in the assay with FTI-277 it was more than 1.02 µM; in the assay with SB-715992, more than 0.128 µM; with JNK Inhibitor VIII it was more than 10 µM; with Belinostat, 3.84 µM; with Docetaxel, more than 0.0125 µM. The concentration for half-maximal inhibition (IC50) with OSI-906 is more than 2.56 µM; with AMG-706, more than 2 µM; with NSC-207895 it was more than 20 µM; with JNJ-26854165, more than 10 µM; with JQ1 (setting [1]), more than 1 µM; with JQ1 (setting [2]) it was more than 2.56 µM.

Take “NCI-H2444 (non-small cell lung carcinoma, adherent)”: the AUC with YM155 is 0.302; with FTI-277, 0.988; with SB-715992, 0.988; with JNK Inhibitor VIII, 0.982; with Belinostat it was 0.461; with Docetaxel it was 0.911. Besides, the AUC in the assay with OSI-906 is 0.987; in the assay with AMG-706, 0.977; in the assay with NSC-207895, 0.988; in the assay with JNJ-26854165, 0.897; in the assay with JQ1 (setting [1]), 0.939; in the assay with JQ1 (setting [2]), 0.862. Further, the IC50 in the assay with YM155 was 0.0815 µM; with FTI-277 it was more than 1.02 µM; in the assay with SB-715992 it was more than 0.128 µM; with JNK Inhibitor VIII, more than 10 µM; with Belinostat it was 0.966 µM; with Docetaxel it was more than 0.0125 µM. The half-maximal inhibitory concentration (IC50) was more than 2.56 µM in the assay with OSI-906; more than 2 µM with AMG-706; more than 20 µM in the assay with NSC-207895; more than 10 µM with JNJ-26854165; more than 1 µM with JQ1 (setting [1]); more than 2.56 µM in the assay with JQ1 (setting [2]).

As a reminder, the IC50 is the concentration at which inhibition is half-maximal.
